# Assay results from the supplement of paper PMC8728848.
# The other results are listed elsewhere or left out.
# B1: AMA (Arum maculatun) (protein)
# chain: MAKLLLLLLLPAIVGLAVPRSAAAVGSNYMLSGETLNTDGRLTNGELTLIMQVDCNLVLYHGGWQSNTANNGRDCKLTLTDFGELVIKSGTGSTVWSSGSKQSMKGNYAAVVHPEGRLVIYGPSVFKINPSGAGLNGLPLRNIPLTNNMLFSGQVLYGDGTLSARNHKLVMQGDCNMVLYGGKYGWQSNTHGNGKYCFAMLTHKGELVIRDDDFKSVWSSKSSSKQGDYVFILQDDSLAIIYGPAVFSTGSKKMISMVTN
# Tests used:
# Assay in all cases: glycan array binding signal (z-score within array); higher = stronger binding
# Conditions in all cases: glycan notation: IUPAC condensed, linker removed
# [1] = molecular target: Gal(b1-4)GlcNAc(b1-2)Man(a1-3)[GlcNAc(b1-2)Man(a1-6)]Man(b1-4)GlcNAc(b1-4)GlcNAc
# Method in brief: (§1)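 From the Consortium for Functional Glycomics database, 3228 arrays were curated, keeping only those whose protein sequence was available. Binding is given as a within-array Z-score averaged across arrays sharing a protein sequence and across linkers. Negative Z-scores can be read as non-binding.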
# [2] = molecular target: Gal(b1-4)GlcNAc(b1-2)Man(a1-3)[GlcNAc(b1-4)][Gal(b1-4)GlcNAc(b1-2)Man(a1-6)]Man(b1-4)GlcNAc(b1-4)GlcNAc
# Method in brief: as §1
# [3] = molecular target: Gal(b1-4)GlcNAc(b1-2)Man(a1-3)[Man(a1-6)]Man(b1-4)GlcNAc(b1-4)GlcNAc
# Method in brief: as §1
# [4] = molecular target: Gal(b1-4)GlcNAc(b1-2)Man(a1-6)Man(b1-4)GlcNAc(b1-4)GlcNAc
# Method in brief: as §1
# [5] = molecular target: Gal(b1-4)GlcNAc(b1-2)Man(a1-6)[GlcNAc(b1-2)Man(a1-3)]Man(b1-4)GlcNAc(b1-4)GlcNAc
# Method in brief: as §1
# [6] = molecular target: Gal(b1-4)GlcNAc(b1-2)Man(a1-6)[Man(a1-3)]Man(b1-4)GlcNAc(b1-4)GlcNAc
# Method in brief: as §1
# [7] = molecular target: Gal(b1-4)GlcNAc(b1-2)[Gal(b1-4)GlcNAc(b1-4)]Man(a1-3)[Gal(b1-4)GlcNAc(b1-2)Man(a1-6)]Man(b1-4)GlcNAc(b1-4)GlcNAc
# Method in brief: as §1
# [8] = molecular target: Gal(b1-4)GlcNAc(b1-2)[Gal(b1-4)GlcNAc(b1-4)]Man(a1-3)[Gal(b1-4)GlcNAc(b1-2)[Gal(b1-4)GlcNAc(b1-6)]Man(a1-6)]Man(b1-4)GlcNAc(b1-4)GlcNAc
# Method in brief: as §1
# [9] = molecular target: Gal(b1-4)GlcNAc(b1-2)[Gal(b1-4)GlcNAc(b1-4)]Man(a1-3)[GlcNAc(b1-4)][Gal(b1-4)GlcNAc(b1-2)Man(a1-6)]Man(b1-4)GlcNAc(b1-4)GlcNAc
# Method in brief: as §1
# [10] = molecular target: Gal(b1-4)GlcNAc(b1-2)[Gal(b1-4)GlcNAc(b1-4)]Man(a1-3)[GlcNAc(b1-4)][Gal(b1-4)GlcNAc(b1-2)[Gal(b1-4)GlcNAc(b1-6)]Man(a1-6)]Man(b1-4)GlcNAc(b1-4)GlcNAc
# Method in brief: as §1
# [11] = molecular target: Gal(b1-4)GlcNAc(b1-2)[Gal(b1-4)GlcNAc(b1-6)]Man(a1-6)[Gal(b1-4)GlcNAc(b1-2)Man(a1-3)]Man(b1-4)GlcNAc(b1-4)GlcNAc
# Method in brief: as §1
# [12] = molecular target: Gal(b1-4)GlcNAc(b1-2)[Gal(b1-4)GlcNAc(b1-6)]Man(a1-6)[Gal(b1-4)GlcNAc(b1-2)Man(a1-3)]Man(b1-4)GlcNAc(b1-4)[Fuc(a1-6)]GlcNAc
# Method in brief: as §1
# [13] = molecular target: Gal(b1-4)GlcNAc(b1-2)[Gal(b1-4)GlcNAc(b1-6)]Man(a1-6)[GlcNAc(b1-4)][Gal(b1-4)GlcNAc(b1-2)Man(a1-3)]Man(b1-4)GlcNAc(b1-4)GlcNAc
# Method in brief: as §1
# [14] = molecular target: Gal(b1-4)GlcNAc(b1-2)[Gal(b1-4)GlcNAc(b1-6)]Man(a1-6)[GlcNAc(b1-4)][Gal(b1-4)GlcNAc(b1-2)[Gal(b1-4)GlcNAc(b1-4)]Man(a1-3)]Man(b1-4)GlcNAc(b1-4)[Fuc(a1-6)]GlcNAc
# Method in brief: as §1
# [15] = molecular target: Gal(b1-4)GlcNAc(b1-3)Gal(b1-3)GalNAc
# Method in brief: as §1
# [16] = molecular target: Gal(b1-4)GlcNAc(b1-3)Gal(b1-3)GlcNAc
# Method in brief: as §1
# [17] = molecular target: Gal(b1-4)GlcNAc(b1-3)Gal(b1-4)Glc
# Method in brief: as §1
# [18] = molecular target: Gal(b1-4)GlcNAc(b1-3)Gal(b1-4)GlcNAc
# Method in brief: as §1
# [19] = molecular target: Gal(b1-4)GlcNAc(b1-3)Gal(b1-4)GlcNAc(b1-2)Man(a1-3)[Gal(b1-4)GlcNAc(b1-3)Gal(b1-4)GlcNAc(b1-2)Man(a1-6)]Man(b1-4)GlcNAc(b1-4)GlcNAc
# Method in brief: as §1
# [20] = molecular target: Gal(b1-4)GlcNAc(b1-3)Gal(b1-4)GlcNAc(b1-2)Man(a1-3)[Gal(b1-4)GlcNAc(b1-3)Gal(b1-4)GlcNAc(b1-2)Man(a1-6)]Man(b1-4)GlcNAc(b1-4)[Fuc(a1-6)]GlcNAc
# Method in brief: as §1
# [21] = molecular target: Gal(b1-4)GlcNAc(b1-3)Gal(b1-4)GlcNAc(b1-2)[Gal(b1-4)GlcNAc(b1-3)Gal(b1-4)GlcNAc(b1-6)]Man(a1-6)[Gal(b1-4)GlcNAc(b1-3)Gal(b1-4)GlcNAc(b1-2)Man(a1-3)]Man(b1-4)GlcNAc(b1-4)GlcNAc
# Method in brief: as §1
# [22] = molecular target: Gal(b1-4)GlcNAc(b1-3)Gal(b1-4)GlcNAc(b1-2)[Gal(b1-4)GlcNAc(b1-3)Gal(b1-4)GlcNAc(b1-6)]Man(a1-6)[Gal(b1-4)GlcNAc(b1-3)Gal(b1-4)GlcNAc(b1-2)Man(a1-3)]Man(b1-4)GlcNAc(b1-4)[Fuc(a1-6)]GlcNAc
# Method in brief: as §1
binder,measurement,setting,value
B1,glycan array binding signal (z-score),[1],2.21
same,glycan array binding signal (z-score),[2],-0.218
same,glycan array binding signal (z-score),[3],0.479
same,glycan array binding signal (z-score),[4],-0.214
same,glycan array binding signal (z-score),[5],1.81
same,glycan array binding signal (z-score),[6],0.496
same,glycan array binding signal (z-score),[7],1.79
same,glycan array binding signal (z-score),[8],2.65
same,glycan array binding signal (z-score),[9],-0.221
same,glycan array binding signal (z-score),[10],-0.218
same,glycan array binding signal (z-score),[11],-0.226
same,glycan array binding signal (z-score),[12],-0.221
same,glycan array binding signal (z-score),[13],-0.215
same,glycan array binding signal (z-score),[14],-0.219
same,glycan array binding signal (z-score),[15],-0.219
same,glycan array binding signal (z-score),[16],-0.212
same,glycan array binding signal (z-score),[17],-0.217
same,glycan array binding signal (z-score),[18],-0.22
same,glycan array binding signal (z-score),[19],0.456
same,glycan array binding signal (z-score),[20],2.23
same,glycan array binding signal (z-score),[21],-0.214
same,glycan array binding signal (z-score),[22],-0.189
